Measured values as given in PMC13121807.
No constants are given. Whether binding was seen depends on the method and setting. In cells and extracts the contact can be indirect. Some results given as binding are weak or reduced against the parent protein; the word gives no strength. For some assays here: Tags and fused reporters may be left off the sequences shown.

Chains of the proteins cited; added tags and fusions are not shown. Residues count along the entry.
UniProt P19634: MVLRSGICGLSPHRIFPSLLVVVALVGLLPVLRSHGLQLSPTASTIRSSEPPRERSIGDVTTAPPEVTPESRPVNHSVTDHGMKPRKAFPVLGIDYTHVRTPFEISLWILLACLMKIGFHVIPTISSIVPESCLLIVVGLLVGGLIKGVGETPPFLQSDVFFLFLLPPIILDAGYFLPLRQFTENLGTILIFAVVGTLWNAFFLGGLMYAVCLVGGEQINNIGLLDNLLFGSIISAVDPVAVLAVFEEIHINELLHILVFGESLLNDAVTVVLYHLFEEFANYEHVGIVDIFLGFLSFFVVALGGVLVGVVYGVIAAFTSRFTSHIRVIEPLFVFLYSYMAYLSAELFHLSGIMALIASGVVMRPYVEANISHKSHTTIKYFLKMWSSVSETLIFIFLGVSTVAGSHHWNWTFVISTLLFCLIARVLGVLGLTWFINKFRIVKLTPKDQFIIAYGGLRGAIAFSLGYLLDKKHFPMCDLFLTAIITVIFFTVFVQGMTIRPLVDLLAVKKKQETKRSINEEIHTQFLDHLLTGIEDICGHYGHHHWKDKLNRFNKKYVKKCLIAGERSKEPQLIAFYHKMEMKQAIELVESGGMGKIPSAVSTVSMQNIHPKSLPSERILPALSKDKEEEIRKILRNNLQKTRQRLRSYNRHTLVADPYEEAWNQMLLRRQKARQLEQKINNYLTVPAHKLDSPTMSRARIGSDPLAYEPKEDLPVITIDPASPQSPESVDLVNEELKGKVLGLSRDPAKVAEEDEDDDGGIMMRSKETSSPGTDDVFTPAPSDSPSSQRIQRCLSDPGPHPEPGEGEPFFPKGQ
UniProt P48764, residues 26-834: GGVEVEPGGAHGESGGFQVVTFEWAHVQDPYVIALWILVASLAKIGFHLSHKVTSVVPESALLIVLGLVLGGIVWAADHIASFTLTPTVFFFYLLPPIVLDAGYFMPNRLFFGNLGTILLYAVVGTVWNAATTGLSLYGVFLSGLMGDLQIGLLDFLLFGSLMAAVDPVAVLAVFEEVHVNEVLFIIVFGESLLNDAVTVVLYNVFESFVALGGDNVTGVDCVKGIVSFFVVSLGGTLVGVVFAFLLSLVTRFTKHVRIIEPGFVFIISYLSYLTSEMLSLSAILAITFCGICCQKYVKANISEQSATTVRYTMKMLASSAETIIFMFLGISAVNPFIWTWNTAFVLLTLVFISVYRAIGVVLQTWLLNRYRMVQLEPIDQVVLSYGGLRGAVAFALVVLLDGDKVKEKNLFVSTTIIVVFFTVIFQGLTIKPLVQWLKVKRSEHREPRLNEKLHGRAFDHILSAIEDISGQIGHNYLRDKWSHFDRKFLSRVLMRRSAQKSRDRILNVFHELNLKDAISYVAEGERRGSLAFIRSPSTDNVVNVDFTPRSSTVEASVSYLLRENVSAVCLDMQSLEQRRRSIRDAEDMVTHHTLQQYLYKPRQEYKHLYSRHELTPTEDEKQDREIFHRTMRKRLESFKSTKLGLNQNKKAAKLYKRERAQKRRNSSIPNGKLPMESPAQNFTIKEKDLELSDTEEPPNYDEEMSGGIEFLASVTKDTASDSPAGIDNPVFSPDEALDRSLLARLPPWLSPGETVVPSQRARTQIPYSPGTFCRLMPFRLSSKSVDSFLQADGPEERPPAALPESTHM

Experiments:
[1] = target: T1, cystinosinLKG-DsRed (human) (UniProt O60931); experiment: co-IP; HEK293T cells stably expressing the GFP and DsRed fusions; whole cell lysate (50 mM Tris-HCl pH 7.5, 150 mM NaCl, 1% Igepal CA-630); GFP-Trap magnetic beads or anti-RFP (6G6) on Protein A Dynabeads, 4 °C overnight; blots for GFP and DsRed; normal IgG as negative control
T1 sequence: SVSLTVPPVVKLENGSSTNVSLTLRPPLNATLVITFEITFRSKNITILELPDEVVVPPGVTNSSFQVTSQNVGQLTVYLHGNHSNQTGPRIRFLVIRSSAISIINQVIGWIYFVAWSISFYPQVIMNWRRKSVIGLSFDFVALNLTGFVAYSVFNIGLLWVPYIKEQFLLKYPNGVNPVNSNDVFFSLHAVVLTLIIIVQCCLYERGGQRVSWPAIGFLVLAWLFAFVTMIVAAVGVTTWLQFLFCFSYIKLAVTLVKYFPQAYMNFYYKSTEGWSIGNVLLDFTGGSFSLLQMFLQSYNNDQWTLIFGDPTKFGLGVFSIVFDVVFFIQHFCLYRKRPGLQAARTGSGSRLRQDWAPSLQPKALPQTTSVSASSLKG

[2] = target: T1, cystinosinLKG-DsRed (human); experiment: co-IP; CTNS-deficient HK-2 cells stably expressing the GFP and DsRed fusions; whole cell lysate (50 mM Tris-HCl pH 7.5, 150 mM NaCl, 1% Igepal CA-630); GFP-Trap magnetic beads or anti-RFP (6G6) on Protein A Dynabeads, 4 °C overnight; blots for GFP and DsRed; normal IgG as negative control
NHE1-GFP (human) = NHE1-GFP (human) (UniProt P19634); experiment: co-IP; HEK293T cells stably expressing the GFP and DsRed fusions; whole cell lysate (50 mM Tris-HCl pH 7.5, 150 mM NaCl, 1% Igepal CA-630); GFP-Trap magnetic beads or anti-RFP (6G6) on Protein A Dynabeads, 4 °C overnight; blots for GFP and DsRed; normal IgG as negative control
NHE2-GFP (human) = target: T2, NHE2-GFP (human) (UniProt Q9UBY0); experiment: as above
T2 sequence: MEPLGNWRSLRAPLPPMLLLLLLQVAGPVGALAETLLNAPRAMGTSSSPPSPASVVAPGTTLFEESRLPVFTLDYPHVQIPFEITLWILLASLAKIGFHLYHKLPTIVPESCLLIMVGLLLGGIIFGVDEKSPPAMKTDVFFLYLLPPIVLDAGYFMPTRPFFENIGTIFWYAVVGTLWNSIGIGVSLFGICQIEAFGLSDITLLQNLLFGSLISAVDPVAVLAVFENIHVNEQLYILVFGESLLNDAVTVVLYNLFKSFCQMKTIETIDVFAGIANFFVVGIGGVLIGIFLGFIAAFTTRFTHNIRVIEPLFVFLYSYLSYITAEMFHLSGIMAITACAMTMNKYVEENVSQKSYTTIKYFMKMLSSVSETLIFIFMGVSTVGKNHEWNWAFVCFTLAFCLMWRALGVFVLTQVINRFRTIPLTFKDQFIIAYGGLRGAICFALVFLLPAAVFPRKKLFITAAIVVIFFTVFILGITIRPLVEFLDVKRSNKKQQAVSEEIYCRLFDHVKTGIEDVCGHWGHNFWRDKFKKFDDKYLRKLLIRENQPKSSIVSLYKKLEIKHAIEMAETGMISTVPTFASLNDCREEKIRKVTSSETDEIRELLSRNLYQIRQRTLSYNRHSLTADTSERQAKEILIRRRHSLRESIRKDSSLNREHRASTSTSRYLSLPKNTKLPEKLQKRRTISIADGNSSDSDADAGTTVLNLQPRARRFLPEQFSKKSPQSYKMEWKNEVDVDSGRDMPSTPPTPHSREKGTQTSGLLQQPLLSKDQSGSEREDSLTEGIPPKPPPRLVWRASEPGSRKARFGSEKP

NHE3-GFP (human) [3] = target: NHE3-GFP (human) (UniProt P48764); experiment: as above
NHE3-GFP (human) [4] = target: NHE3-GFP (human) (UniProt P48764); experiment: co-IP; CTNS-deficient HK-2 cells stably expressing the GFP and DsRed fusions; whole cell lysate (50 mM Tris-HCl pH 7.5, 150 mM NaCl, 1% Igepal CA-630); GFP-Trap magnetic beads or anti-RFP (6G6) on Protein A Dynabeads, 4 °C overnight; blots for GFP and DsRed; normal IgG as negative control

NHE3-GFP (from UniProt P48764 26-834)
binding [1]: binds
binding [2]: binds

NHE1-GFP (from UniProt P19634 1-815)
binding [1]: no binding

B1: NHE2-GFP (protein, UniProt Q9UBY0 1-812)
chain: T2 sequence
binding [1]: binds

B2: cystinosinLKG-DsRed (protein, UniProt O60931-2 23-400)
chain: T1 sequence
binding (NHE1-GFP (human)): no binding
binding (NHE2-GFP (human)): binds
binding (NHE3-GFP (human) [3]): binds
binding (NHE3-GFP (human) [4]): binds
